# Experimental data as given in the supplement of paper PMC8728848.
# Some of the results follow.
# B1: VLRB.aGPA.23-GCN4-biotin (Petromyzon marinus) (protein)
# chain: ACPSQCSCSGTEVNCAGKSLASVPAGIPTTTRVLYLNSNQITKLEPGVFDRLANLRELHLWGNQLVSLPPGVFDNLANLEKLWLNSNQLTSLPAGLFDRLVNLEHLGLCCMKLTELPSGAFDKLTRLKQLGLDQNQLKSIPDGAFARLPSLTHVWLHTNPWDCQCTDILYLSGWVAQHSSIVGEGWPWRHSPDSAKCSGTNTPVRAVTEASTSPSKCP
# Columns and labels:
# Test in all cases: glycan array binding signal (z-score within array); higher = stronger binding
# Conditions in all cases: glycan notation: IUPAC condensed, linker removed
# [1] = molecular target: Fuc(a1-2)Gal(b1-4)GlcNAc(b1-3)Gal(b1-4)GlcNAc(b1-2)Man(a1-3)[Fuc(a1-2)Gal(b1-4)GlcNAc(b1-3)Gal(b1-4)GlcNAc(b1-2)Man(a1-6)]Man(b1-4)GlcNAc(b1-4)GlcNAc
# Summary of the method: (§1)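 Negative Z-scores can be read as non-binding. The Z-score is calculated within each array and then averaged across arrays of one protein sequence at different concentrations or buffers and across linkers. Arrays, 3228 in all, were curated from the Consortium for Functional Glycomics database and kept only where the protein sequence was available.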
# [2] = molecular target: Fuc(a1-2)Gal(b1-4)GlcNAc(b1-3)Gal(b1-4)GlcNAc(b1-3)Gal(b1-4)GlcNAc
# Summary of the method: as §1
# [3] = molecular target: Fuc(a1-2)Gal(b1-4)GlcNAc(b1-3)GalNAc
# Summary of the method: as §1
# [4] = molecular target: Fuc(a1-2)Gal(b1-4)GlcNAc(b1-3)[Fuc(a1-2)Gal(b1-4)GlcNAc(b1-6)]GalNAc
# Summary of the method: as §1
# [5] = molecular target: Fuc(a1-2)Gal(b1-4)GlcNAc(b1-3)[Fuc(a1-3)[Gal(b1-4)]GlcNAc(b1-6)]Gal(b1-4)Glc
# Summary of the method: as §1
# [6] = molecular target: Fuc(a1-2)Gal(b1-4)GlcNAc(b1-6)GalNAc
# Summary of the method: as §1
# [7] = molecular target: Fuc(a1-2)Gal(b1-4)GlcNAc6S
# Summary of the method: as §1
# [8] = molecular target: Fuc(a1-2)Gal(b1-4)[Fuc(a1-3)]GlcNAc
# Summary of the method: as §1
# [9] = molecular target: Fuc(a1-2)Gal(b1-4)[Fuc(a1-3)]GlcNAc(b1-2)Man(a1-3)[Fuc(a1-2)Gal(b1-4)[Fuc(a1-3)]GlcNAc(b1-2)Man(a1-6)]Man(b1-4)GlcNAc(b1-4)[Fuc(a1-6)]GlcNAc
# Summary of the method: as §1
# [10] = molecular target: Fuc(a1-2)Gal(b1-4)[Fuc(a1-3)]GlcNAc(b1-2)[Fuc(a1-2)Gal(b1-4)[Fuc(a1-3)]GlcNAc(b1-4)]Man(a1-3)[Fuc(a1-2)Gal(b1-4)[Fuc(a1-3)]GlcNAc(b1-2)Man(a1-6)]Man(b1-4)GlcNAc(b1-4)GlcNAc
# Summary of the method: as §1
# [11] = molecular target: Fuc(a1-2)Gal(b1-4)[Fuc(a1-3)]GlcNAc(b1-3)Gal(b1-4)[Fuc(a1-3)]GlcNAc
# Summary of the method: as §1
# [12] = molecular target: Fuc(a1-2)Gal(b1-4)[Fuc(a1-3)]GlcNAc(b1-3)Gal(b1-4)[Fuc(a1-3)]GlcNAc(b1-3)Gal(b1-4)[Fuc(a1-3)]GlcNAc
# Summary of the method: as §1
# [13] = molecular target: Fuc(a1-2)Gal(b1-4)[Fuc(a1-3)]GlcNAc(b1-3)GalNAc
# Summary of the method: as §1
# [14] = molecular target: Fuc(a1-2)Gal(b1-4)[Fuc(a1-3)]GlcNAc(b1-3)[Neu5Ac(a2-6)Gal(b1-4)GlcNAc(b1-6)]Gal(b1-4)Glc
# Summary of the method: as §1
# [15] = molecular target: Fuc(a1-2)Gal3S(b1-4)GlcNAc
# Summary of the method: as §1
# [16] = molecular target: Fuc(a1-2)Gal6S(b1-3)GlcNAc
# Summary of the method: as §1
# [17] = molecular target: Fuc(a1-2)Gal6S(b1-3)GlcNAc6S
# Summary of the method: as §1
# Fuc(a1-2)Gal6S(b1-4)Glc = molecular target: Fuc(a1-2)Gal6S(b1-4)Glc
# Summary of the method: as §1
# [18] = molecular target: Fuc(a1-2)Gal6S(b1-4)Glc6S
# Summary of the method: as §1
# Fuc(a1-2)[Gal(a1-3)]Gal = molecular target: Fuc(a1-2)[Gal(a1-3)]Gal
# Summary of the method: as §1
# [19] = molecular target: Fuc(a1-2)[Gal(a1-3)]Gal(b1-3)GalNAc
# Summary of the method: as §1
# [20] = molecular target: Fuc(a1-2)[Gal(a1-3)]Gal(b1-3)GalNAc(b1-3)Gal(a1-4)Gal(b1-4)Glc
# Summary of the method: as §1
# [21] = molecular target: Fuc(a1-2)[Gal(a1-3)]Gal(b1-3)GlcNAc
# Summary of the method: as §1
# [22] = molecular target: Fuc(a1-2)[Gal(a1-3)]Gal(b1-3)GlcNAc(b1-2)Man(a1-3)[Fuc(a1-2)[Gal(a1-3)]Gal(b1-3)GlcNAc(b1-2)Man(a1-6)]Man(b1-4)GlcNAc(b1-4)GlcNAc
# Summary of the method: as §1
# [23] = molecular target: Fuc(a1-2)[Gal(a1-3)]Gal(b1-3)GlcNAc(b1-2)Man(a1-3)[Fuc(a1-2)[Gal(a1-3)]Gal(b1-3)GlcNAc(b1-2)Man(a1-6)]Man(b1-4)GlcNAc(b1-4)[Fuc(a1-6)]GlcNAc
# Summary of the method: as §1
# [24] = molecular target: Fuc(a1-2)[Gal(a1-3)]Gal(b1-3)GlcNAc(b1-3)GalNAc
# Summary of the method: as §1
# [25] = molecular target: Fuc(a1-2)[Gal(a1-3)]Gal(b1-3)GlcNAc(b1-6)GalNAc
# Summary of the method: as §1
# [26] = molecular target: Fuc(a1-2)[Gal(a1-3)]Gal(b1-4)Glc
# Summary of the method: as §1
# [27] = molecular target: Fuc(a1-2)[Gal(a1-3)]Gal(b1-4)GlcNAc
# Summary of the method: as §1
# [28] = molecular target: Fuc(a1-2)[Gal(a1-3)]Gal(b1-4)GlcNAc(b1-2)Man
# Summary of the method: as §1
binder,measurement,setting,value
B1,glycan array binding signal (z-score),[1],-0.051
same,glycan array binding signal (z-score),[2],-0.076
same,glycan array binding signal (z-score),[3],-0.08
same,glycan array binding signal (z-score),[4],-0.08
same,glycan array binding signal (z-score),[5],-0.076
same,glycan array binding signal (z-score),[6],-0.084
same,glycan array binding signal (z-score),[7],-0.082
same,glycan array binding signal (z-score),[8],-0.077
same,glycan array binding signal (z-score),[9],-0.064
same,glycan array binding signal (z-score),[10],-0.079
same,glycan array binding signal (z-score),[11],-0.086
same,glycan array binding signal (z-score),[12],-0.074
same,glycan array binding signal (z-score),[13],-0.064
same,glycan array binding signal (z-score),[14],-0.074
same,glycan array binding signal (z-score),[15],-0.079
same,glycan array binding signal (z-score),[16],-0.079
same,glycan array binding signal (z-score),[17],-0.055
same,glycan array binding signal (z-score),Fuc(a1-2)Gal6S(b1-4)Glc,-0.078
same,glycan array binding signal (z-score),[18],-0.079
same,glycan array binding signal (z-score),Fuc(a1-2)[Gal(a1-3)]Gal,-0.071
same,glycan array binding signal (z-score),[19],-0.073
same,glycan array binding signal (z-score),[20],-0.085
same,glycan array binding signal (z-score),[21],-0.055
same,glycan array binding signal (z-score),[22],-0.079
same,glycan array binding signal (z-score),[23],-0.07
same,glycan array binding signal (z-score),[24],-0.083
same,glycan array binding signal (z-score),[25],-0.079
same,glycan array binding signal (z-score),[26],-0.058
same,glycan array binding signal (z-score),[27],-0.084
same,glycan array binding signal (z-score),[28],-0.082
